We go through 32 molecules from the supplement of paper PMC12462457.

For this test, the system named is OVCAR8. The test can be described thus: cell count relative to DMSO vehicle (fold change); OVCAR8 is a high-grade serous ovarian cancer line and CX-5461 an RNA polymerase I inhibitor; higher = more surviving senescent cells (less killing). Conditions: senescence inducer: CX-5461 3 µM 48 h, then 6 d recovery (CX senescent), exposure time 24 h.

The structures appear in SMILES notation. ± gives the standard deviation of the averaged measurements. Some of the results follow.

For the molecule `CNc1ccc2oc(C[C@H]3O[C@@]4(CC[C@H]3C)O[C@H]([C@H](C)C(=O)c3ccc[nH]3)[C@H](C)C[C@H]4C)nc2c1C(=O)O` [Calcimycin], the cell count reads like this: (compound dose 1 µM) 1.31 ± 0.04; (compound dose 5 µM) 1.28 ± 0.12.
Turning to `COc1ccc(O)c(C(C)(C)C)c1.COc1ccc(O)cc1C(C)(C)C`, the cell count is, setting by setting: (compound dose 1 µM) 1.03 ± 0.12; (compound dose 5 µM) 1.1 ± 0.13.
For `O=C1C=C2C(=CCOC2O)O1` (centres undefined), in that order: 0.709 ± 0.13 and 0.076 ± 0.018.
For `C=C(C)[C@H]1Cc2c(ccc3c2O[C@@H]2COc4cc(OC)c(OC)cc4[C@@H]2C3=O)O1` [Rotenone], the cell count runs as follows: (compound dose 1 µM) 1.18 ± 0.22; (compound dose 5 µM) 1.167 ± 0.0028.
For `COc1ccc([C@@]23Oc4cc(OC)cc(OC)c4[C@]2(O)[C@H](O)[C@H](C(N)=O)[C@H]3c2ccccc2)cc1` [Didesmethylrocaglamide], in that order: 0.534 ± 0.033 and 0.472 ± 0.016.
The molecule `COc1ccc2c(c1)/C(=C/c1cnc[nH]1)C(=O)N2` came in with a cell count (compound dose 1 µM) of 1.26 ± 0.29 and a cell count (compound dose 5 µM) of 1.13 ± 0.4.
For `COc1ccc(C[C@H]2NC[C@H](O)[C@H]2OC(C)=O)cc1` [Anisomycin], in that order: 0.936 ± 0.11 and 0.558 ± 0.13.
For `C[C@@H]1CC[C@H]2[C@@H](C)C(=O)O[C@@H]3O[C@@]4(C)CC[C@@H]1[C@]32OO4` [Artemisinin], in that order: 1.02 ± 0.015 and 1.18 ± 0.11.
The like results for `Cc1ccc(OCCn2c(C)c(C=C3C(=O)NC(=S)NC3=O)c3ccccc32)c(C)c1` were, in that order, 1.13 ± 0.15 and 0.905 ± 0.061.
With `CC(=O)N1N=C(c2ccc(N)cc2)c2cc3c(cc2C[C@H]1C)OCO3` [Talampanel], the cell count is, setting by setting: (compound dose 1 µM) 1.21 ± 0.33; (compound dose 5 µM) 1.16 ± 0.28.
For `O=C1CCC[C@@H]2[C@H]3CCCN4CCC[C@@H](CN12)[C@@H]34` [Matrine], in that order: 1.08 ± 0.14 and 1.06 ± 0.16.
Regarding `CC(=O)O[C@H]1[C@H]2O[C@]23[C@@H]2CC[C@@H]4C[C@@H](O)CC[C@]4(C)[C@H]2CC[C@]3(C)[C@H]1c1ccc(=O)oc1` [Cinobufagin], the cell count runs as follows: (compound dose 1 µM) 0.034 ± 0.0014; (compound dose 5 µM) 0.0175 ± 0.0092.
For the molecule `CN[C@@H]1C[C@H]2O[C@@](C)([C@@H]1OC)n1c3ccccc3c3c4c(c5c6ccccc6n2c5c31)C(=O)NC4` [Staurosporine], the cell count by setting is: (compound dose 1 µM) 0.0115 ± 0.0092; (compound dose 5 µM) 0.0045 ± 0.00071.
Consider `COCC1(CO)C(=O)C2CCN1CC2` (centres undefined) [Eprenetapopt], for which the cell count came out at 1.09 ± 0.11 (compound dose 1 µM) and 0.884 ± 0.059 (compound dose 5 µM).
For `C=C[C@H]1CN2CC[C@H]1C[C@@H]2[C@@H](O)c1ccnc2ccccc12` [Cinchonine], in that order: 1.08 ± 0.27 and 1.1 ± 0.28.
The molecule `C/C(=C\c1csc(C)n1)[C@@H]1C[C@@H]2O[C@]2(C)CCC[C@H](C)[C@H](O)[C@@H](C)C(=O)C(C)(C)[C@@H](O)CC(=O)O1` [Epothilone B] registered a cell count (compound dose 1 µM) of 1.07 ± 0.018 and a cell count (compound dose 5 µM) of 1 ± 0.15.
Take `COc1ccccc1-n1c(/C=C/c2ccc(O)c(O)c2)nc2ccccc2c1=O`: the cell count runs as follows: (compound dose 1 µM) 1.15 ± 0.21; (compound dose 5 µM) 1.13 ± 0.042.
The like results for `C=C1[C@H](OC(=O)c2ccccc2)C[C@H]2[C@@H](/C=C(\C)C(=O)[C@@]3(OC(C)=O)C[C@H](C)[C@H](OC(=O)c4ccccc4)[C@@H]3[C@H]1OC(C)=O)C2(C)C` [Euphorbia Factor L2] were, in that order, 1.16 ± 0.22 and 1.07 ± 0.15.
Take `CC(=O)OC(C)(C)/C=C/C(=O)[C@](C)(O)[C@H]1[C@H](O)C[C@@]2(C)[C@@H]3CC=C4[C@H](C[C@H](O)C(=O)C4(C)C)[C@]3(C)C(=O)C[C@]12C` [Cucurbitacin B]: the cell count (compound dose 1 µM) is 0.015 ± 0.0042 and the cell count (compound dose 5 µM) was 0.015 ± 0.0014.
The like results for `CC(C)[C@@H]1NC(=O)[C@H](C)OC(=O)[C@@H](C(C)C)NC(=O)[C@@H](C(C)C)OC(=O)[C@H](C(C)C)NC(=O)[C@H](C)OC(=O)[C@@H](C(C)C)NC(=O)[C@@H](C(C)C)OC(=O)[C@H](C(C)C)NC(=O)[C@H](C)OC(=O)[C@@H](C(C)C)NC(=O)[C@@H](C(C)C)OC1=O` [Valinomycin] were, in that order, 1.01 ± 0.027 and 1.06 ± 0.14.
As to `O=C(Nc1ccncc1)C(=O)c1cn(Cc2ccc(Cl)cc2)c2ccccc12` [Indibulin], the cell count (compound dose 1 µM) was 1.065 ± 0.0035 and the cell count (compound dose 5 µM) was 1.09 ± 0.018.
For the molecule `O=c1ccc2ccc3occc3c2o1` [Angelicin], the cell count was 1.07 ± 0.14 (compound dose 1 µM) and 1.03 ± 0.1 (compound dose 5 µM).
For `C/C=C(/C)C(=O)O[C@H]1[C@@H]2[C@H](C)C(=O)O[C@@H]2C[C@@H](C)[C@@H]2C=CC(=O)[C@]21C` [Brevilin A], in that order: 1.052 ± 0.0078 and 1.11 ± 0.066.
As for `N#Cc1nn(-c2c(Cl)cc(C(F)(F)F)cc2Cl)c(N)c1[S+]([O-])C(F)(F)F` (centres undefined) [Fipronil], the cell count is, setting by setting: (compound dose 1 µM) 1.04 ± 0.043; (compound dose 5 µM) 1.01 ± 0.12.
Take `CC[C@@]1(O)C(=O)OCc2c1cc1n(c2=O)Cc2cc3ccccc3nc2-1` [Camptothecin]: the cell count by setting is: (compound dose 1 µM) 0.737 ± 0.057; (compound dose 5 µM) 1.01 ± 0.16.
With `CC(C)=CCC[C@]1(C)C=Cc2c(O)c3c(c(CC=C(C)C)c2O1)O[C@]12C(=C[C@@H]4C[C@H]1C(C)(C)O[C@@]2(C/C=C(/C)C(=O)O)C4=O)C3=O` [Gambogic Acid], the cell count is, setting by setting: (compound dose 1 µM) 0.998 ± 0.14; (compound dose 5 µM) 0.008 ± 0.0014.
For `COc1cc(-n2c(=S)[nH]c3ccccc3c2=O)c(Cl)cc1Cl` [Mdivi-1], in that order: 0.91 ± 0.076 and 1.13 ± 0.03.
For `CC1=C(O)C(=O)C=C2C1=CC=C1[C@@]2(C)CC[C@@]2(C)[C@@H]3C[C@](C)(C(=O)O)CC[C@]3(C)CC[C@]12C` [Tripterin], in that order: 0.267 ± 0.017 and 0.0165 ± 0.005.
For `O=Cc1cn(Cc2ccc(Cl)cc2)c2ccccc12` [Oncrasin-1], in that order: 1.06 ± 0.22 and 0.978 ± 0.3.
As to `CC(C)=CCC[C@H](C(=O)O)[C@H]1CC[C@]2(C)C3=C(CC[C@@]12C)[C@@]1(C)CCC(=O)C(C)(C)[C@H]1CC3` [β-Elemonic acid], the cell count by setting is: (compound dose 1 µM) 1.08 ± 0.2; (compound dose 5 µM) 0.928 ± 0.09.
The like results for `COc1cc([C@@H]2c3cc4c(cc3[C@H](O)[C@H]3COC(=O)[C@@H]23)OCO4)cc(OC)c1OC` [Picropodophyllin] were, in that order, 1.01 ± 0.044 and 1.116 ± 0.0042.
The like results for `C1=C2CCCN[C@H]2[C@@H]2C[C@H]1[C@H]1CCCCN1C2` [Aloperine] were, in that order, 1.11 ± 0.081 and 1.17 ± 0.13.
